Results reported in the supplement of paper PMC11876631.
Changes are numbered by the printed parent chain. In names and notes the source's numbering stands. ± gives the standard deviation of the averaged measurements. Laboratory Escherichia coli strains with one amino-acid change in an essential protein, pooled on minimal glucose agar with carbenicillin or gentamicin at twice the control MIC (plus kanamycin and chloramphenicol for the plasmids), 48 h. Fold change of barcode share against drug-free plates; higher = less susceptible. Active = above 20 in both replicates (the paper's putatively resistant). '<' = one read or none on drug, '>' = one read or none on a drug-free plate. Shares are relative, so most strains fall below 1 when a few take over. Listed are strains with at least 15 reads on both drug-free plates, and hits; most hits rest on fewer reference reads. Replicate rank correlation about 0.5. Edits are read from barcodes.

B1: murE W381Q (protein)
chain: MADRNLRDLLAPWVPDAPSRALREMTLDSRVAAAGDLFVAVVGHQADGRRYIPQAIAQGVAAIIAEAKDEATDGEIREMHGVPVIYLSQLNERLSALAGRFYHEPSDNLRLVGVTGTNGKTTTTQLLAQWSQLLGEISAVMGTVGNGLLGKVIPTENTTGSAVDVQHELAGLVDQGATFCAMEVSSHGLVQHRVAALKFAASVFTNLSRDHLDYHGDMEHYEAAKWLLYSEHHCGQAIINADDEVGRRWLAKLPDAVAVSMEDHINPNCHGRWLKATEVNYHDSGATIRFSSSWGDGEIESHLMGAFNVSNLLLALATLLALGYPLADLLKTAARLQPVCGRMEVFTAPGKPTVVVDYAHTPDALEKALQAARLHCAGKLQCVFGCGGDRDKGKRPLMGAIAEEFADVAVVTDDNPRTEEPRAIINDILAGMLDAGHAKVMEGRAEAVTCAVMQAKENDVVLVAGKGHEDYQIVGNQRLDYSDRVTVARLLGVIA
B2: murF V103A (protein)
chain: MISVTLSQLTDILNGELQGADITLDAVTTDTRKLTPGCLFVALKGERFDAHDFADQAKAGGAGALLVSRPLDIDLPQLIVKDTRLAFGELAAWVRQQVPARVAALTGSSGKTSVKEMTAAILSQCGNTLYTAGNLNNDIGVPMTLLRLTPEYDYAVIELGANHQGEIAWTVSLTRPEAALVNNLAAAHLEGFGSLAGVAKAKGEIFSGLPENGIAIMNADNNDWLNWQSVIGSRKVWRFSPNAANSDFTATNIHVTSHGTEFTLQTPTGSVDVLLPLPGRHNIANALAAAALSMSVGATLDAIKAGLANLKAVPGRLFPIQLAENQLLLDDSYNANVGSMTAAVQVLAEMPGYRVLVVGDMAELGAESEACHVQVGEAAKAAGIDRVLSVGKQSHAISTASGVGEHFADKTALITRLKLLIAEQQVITILVKGSRSAAMEEVVRALQENGTC
B3: murF V41A (protein)
chain: B2 chain with V41A, A103V
B4: murF V41W (protein)
chain: B2 chain with V41W, A103V
B5: asnS F38W (protein)
chain: MSVVPVADVLQGRVAVDSEVTVRGWVRTRRDSKAGISWLAVYDGSCFDPVQAVINNSLPNYNEDVLRLTTGCSVIVTGKVVASPGQGQQFEIQASKVEVAGWVEDPDTYPMAAKRHSIEYLREVAHLRPRTNLIGAVARVRHTLAQALHRFFNEQGFFWVSTPLITASDTEGAGEMFRVSTLDLENLPRNDQGKVDFDKDFFGKESFLTVSGQLNGETYACALSKIYTFGPTFRAENSNTSRHLAEFWMLEPEVAFANLNDIAGLAEAMLKYVFKAVLEERADDMKFFAERVDKDAVSRLERFIEADFAQVDYTDAVTILENCGRKFENPVYWGVDLSSEHERYLAEEHFKAPVVVKNYPKDIKAFYMRLNEDGKTVAAMDVLAPGIGEIIGGSQREERLDVLDERMLEMGLNKEDYWWYRDLRRYGTVPHSGFGLGFERLIAYVTGVQNVRDVIPFPRTPRNASF
B6: murF V41P (protein)
chain: B2 chain with V41P, A103V
B7: murF V357A (protein)
chain: B2 chain with A103V, V357A
B8: murF V357W (protein)
chain: B2 chain with A103V, V357W
B9: murF V357Q (protein)
chain: B2 chain with A103V, V357Q
B10: murF L347D (protein)
chain: B2 chain with A103V, L347D
B11: murF V442A (protein)
chain: B2 chain with A103V, V442A

Biological target: Escherichia coli (laboratory strain)
Assay: barcode share on antibiotic plates over drug-free plates; higher = less susceptible
Protocol: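 A pool of E. coli strains, each edited to carry one amino-acid change in an essential protein, was grown for 48 h on minimal glucose agar with or without antibiotic; strain barcodes were sequenced; mean of two replicates.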

[1] = antibiotic: carbenicillin, 2× MIC (3.1 µg/mL)
[2] = antibiotic: gentamicin, 2× MIC (MIC 0.45 µg/mL)

Row | Protein | fold change of barcode share [1] | fold change of barcode share [2]
1 | B1 | 0.509 ± 0.44 | 
2 | B2 | 0.369 ± 0.043 | 0.104 ± 0.13
3 | B3 | 0.52 ± 0.33 | < 0.012
4 | B4 | 0.211 ± 0.013 | < 0.0119
5 | B5 | 0.337 ± 0.059 | 
6 | B6 | 0.147 ± 0.062 | < 0.00743
7 | B7 | 0.351 ± 0.033 | 0.00351 ± 0.00052
8 | B8 | 0.0485 ± 0.044 | 
9 | B9 | 0.0277 ± 0.014 | 
10 | B10 | 0.0483 ± 0.018 | 
11 | B11 | 0.35 ± 0.14 | < 0.00973
